According to the supplement of paper PMC8728848:
The list shows a part of the results.

Columns and labels:
Test in all cases: glycan array binding signal (z-score within array); higher = stronger binding
Conditions in all cases: glycan notation: IUPAC condensed, linker removed; mutation: E227G
Gal(a1-3)Gal(b1-4)GlcNAc = target: Gal(a1-3)Gal(b1-4)GlcNAc
Summary of the method: (§1)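 The binding signal is a Z-score computed within each array and averaged over linkers. Arrays of the same protein sequence at different concentrations or buffers were also averaged together. Data originate from 3228 arrays in the Consortium for Functional Glycomics database, kept only where the protein sequence was available.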

[1] = target: Gal(a1-3)Gal(b1-4)GlcNAc(b1-2)Man
Summary of the method: as §1

[2] = target: Gal(a1-3)Gal(b1-4)GlcNAc(b1-2)Man(a1-3)[Gal(a1-3)Gal(b1-4)GlcNAc(b1-2)Man(a1-6)]Man(b1-4)GlcNAc(b1-4)GlcNAc
Summary of the method: as §1

[3] = target: Gal(a1-3)Gal(b1-4)GlcNAc(b1-3)GalNAc
Summary of the method: as §1

[4] = target: Gal(a1-3)Gal(b1-4)GlcNAc(b1-6)GalNAc
Summary of the method: as §1

[5] = target: Gal(a1-3)Gal(b1-4)[Fuc(a1-3)]GlcNAc
Summary of the method: as §1

[6] = target: Gal(a1-3)Gal(b1-4)[Fuc(a1-3)]GlcNAc(b1-2)Man(a1-3)[Gal(a1-3)Gal(b1-4)[Fuc(a1-3)]GlcNAc(b1-2)Man(a1-6)]Man(b1-4)GlcNAc(b1-4)GlcNAc
Summary of the method: as §1

Gal(a1-3)GalNAc = target: Gal(a1-3)GalNAc
Summary of the method: as §1

[7] = target: Gal(a1-3)[Gal(a1-4)]Gal(b1-4)GlcNAc
Summary of the method: as §1

[8] = target: Gal(a1-4)Gal(b1-3)GlcNAc(b1-2)Man(a1-3)[Gal(a1-4)Gal(b1-3)GlcNAc(b1-2)Man(a1-6)]Man(b1-4)GlcNAc(b1-4)GlcNAc
Summary of the method: as §1

Gal(a1-4)Gal(b1-4)Glc = target: Gal(a1-4)Gal(b1-4)Glc
Summary of the method: as §1

Gal(a1-4)Gal(b1-4)GlcNAc = target: Gal(a1-4)Gal(b1-4)GlcNAc
Summary of the method: as §1

[9] = target: Gal(a1-4)Gal(b1-4)GlcNAc(b1-2)Man(a1-3)[Gal(a1-4)Gal(b1-4)GlcNAc(b1-2)Man(a1-6)]Man(b1-4)GlcNAc(b1-4)GlcNAc
Summary of the method: as §1

[10] = target: Gal(a1-4)Gal(b1-4)GlcNAc(b1-3)Gal(b1-4)Glc
Summary of the method: as §1

Gal(a1-4)GlcNAc = target: Gal(a1-4)GlcNAc
Summary of the method: as §1

Gal(a1-6)Glc = target: Gal(a1-6)Glc
Summary of the method: as §1

Gal(b1-2)Gal = target: Gal(b1-2)Gal
Summary of the method: as §1

Gal(b1-3)Gal = target: Gal(b1-3)Gal
Summary of the method: as §1

Gal(b1-3)Gal(b1-4)GlcNAc = target: Gal(b1-3)Gal(b1-4)GlcNAc
Summary of the method: as §1

Gal(b1-3)GalNAc = target: Gal(b1-3)GalNAc
Summary of the method: as §1

[11] = target: Gal(b1-3)GalNAc(a1-3)[Fuc(a1-2)]Gal(b1-4)Glc
Summary of the method: as §1

[12] = target: Gal(b1-3)GalNAc(a1-3)[Fuc(a1-2)]Gal(b1-4)GlcNAc
Summary of the method: as §1

Gal(b1-3)GalNAc(b1-3)Gal = target: Gal(b1-3)GalNAc(b1-3)Gal
Summary of the method: as §1

[13] = target: Gal(b1-3)GalNAc(b1-3)Gal(a1-4)Gal(b1-4)Glc
Summary of the method: as §1

[14] = target: Gal(b1-3)GalNAc(b1-4)Gal(b1-4)Glc
Summary of the method: as §1

[15] = target: Gal(b1-3)GalNAc(b1-4)[Neu5Ac(a2-3)]Gal(b1-4)Glc
Summary of the method: as §1

Gal(b1-3)GlcNAc = target: Gal(b1-3)GlcNAc
Summary of the method: as §1

[16] = target: Gal(b1-3)GlcNAc(a1-3)Gal(b1-4)GlcNAc
Summary of the method: as §1

[17] = target: Gal(b1-3)GlcNAc(a1-6)Gal(b1-4)GlcNAc
Summary of the method: as §1

Gal(b1-3)GlcNAc(b1-2)Man = target: Gal(b1-3)GlcNAc(b1-2)Man
Summary of the method: as §1

B1: Epa1-NP-mutant-E227G (Candida glabrata), Q6VBJ0 (protein)
chain: MILNPALFLNKCVCIYTTLILLLLTNGGYATSSNDISLASKDPTTFPLGCSPDITTPKKGLSMELYSYDFRKKGSYPCWDAAYLDPNYPRTGYKSHRLLAKVDGVTGNINFYYHATKGCTPQLGHLPASYNYPKPLTMTNFTMLLYGYFRPKVTGFHTFTISADDLLFVNFGAGNAFDCCRRDSSADHFGNYQAYAIWGSKTAKDELTVHLDAGVYYPIRLFYNNRGYDGALSFTFKTESNENTVSDFSEYFFSLDDTEEGCPGLISYDSSCASVKTSKIIGIDYHTETPNENLVPITKTIYHLGIPCTGTTTTPLCGSGFYDPLANKCVTINTSSTSSVTKTTSHTTSKEVSFHSSISSQKTLIPKSIPSPYGPIKSQSIPTEMETSSEISSSEYAFSDVISTPSHSPYTKKHSSLNSSSYTSTVIHSLTSYSISQGIFSTSLSEQNITSKSSTDKFSTATSMSNNITQSSIIISQFSTNNENYTTTSMHTSSDKISTETLNNSISTTTSILFSNSSTILKNNTTIISSDKDTHYHPVNPTIVCSTNKTEIICASITQPSISNSNNHWSSSVLKFNSTTVRSTLPSSAGSNETSINVPFSSSTESNTSTSSTSTSNSKMVRSTLPSSAGSNETSISVPFSSSTESNTSTSSTSTSNSKMVRSTLPSSAGSNETSINVPFSSSTESNTSTSSTSTSNSKTVRSTPFSSAGIIMTSLSQRNNKSASSYASSNSKCYNTADSCRKVHSTPSYLLTSSYTSEGVDYDCSLVSTKLKINDTNCVNNKHTTKSCLKTSVTTTIPTLEIKTARKSSSNTIGLHSYPTSSPNKSISSAPIIGYISSFKTIKTASPSYQTSDLTTITTITSLNNPGSTAVENTHESNDKSRKTSSNDISSKHSVIKETKDAVESSNKSHQTNTLKCSSIIIASSSHNSYESLGGTTLTLTLSKVYSPQNNDTLPFLEISEVNPSRTVLPESSKMMQYLTSTEERNKTARNTIATNIVSISTFHFEGEGNAIRMGYTQLLLMLIGIIVMNIGT
glycan array binding signal (z-score) (Gal(a1-3)Gal(b1-4)GlcNAc): -0.275 | glycan array binding signal (z-score) [1]: -0.269 | glycan array binding signal (z-score) [2]: -0.18 | glycan array binding signal (z-score) [3]: -0.128 | glycan array binding signal (z-score) [4]: -0.268 | glycan array binding signal (z-score) [5]: -0.329 | glycan array binding signal (z-score) [6]: -0.099 | glycan array binding signal (z-score) (Gal(a1-3)GalNAc): -0.194 | glycan array binding signal (z-score) [7]: 0.011 | glycan array binding signal (z-score) [8]: -0.089 | glycan array binding signal (z-score) (Gal(a1-4)Gal(b1-4)Glc): -0.132 | glycan array binding signal (z-score) (Gal(a1-4)Gal(b1-4)GlcNAc): -0.143 | glycan array binding signal (z-score) [9]: -0.093 | glycan array binding signal (z-score) [10]: -0.225 | glycan array binding signal (z-score) (Gal(a1-4)GlcNAc): -0.029 | glycan array binding signal (z-score) (Gal(a1-6)Glc): -0.19 | glycan array binding signal (z-score) (Gal(b1-2)Gal): -0.17 | glycan array binding signal (z-score) (Gal(b1-3)Gal): 1.03 | glycan array binding signal (z-score) (Gal(b1-3)Gal(b1-4)GlcNAc): 1.84 | glycan array binding signal (z-score) (Gal(b1-3)GalNAc): 1.39 | glycan array binding signal (z-score) [11]: 0.235 | glycan array binding signal (z-score) [12]: 0.409 | glycan array binding signal (z-score) (Gal(b1-3)GalNAc(b1-3)Gal): 0.43 | glycan array binding signal (z-score) [13]: 0.093 | glycan array binding signal (z-score) [14]: 4.13 | glycan array binding signal (z-score) [15]: 0.479 | glycan array binding signal (z-score) (Gal(b1-3)GlcNAc): 0.47 | glycan array binding signal (z-score) [16]: -0.276 | glycan array binding signal (z-score) [17]: -0.062 | glycan array binding signal (z-score) (Gal(b1-3)GlcNAc(b1-2)Man): 0.187
